The structures appear in SMILES notation.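 1) Cells in 96-well plates. 2) Compound, 48 h, 5 concentrations. 3) Linear interpolation between surrounding doses. 4) Unreached endpoint = highest concentration. GI50 = concentration required for 50% inhibition of growth.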 Activity calls are given as the source filed them. Cut-off read from the data, not from the text of the source: active = GI50 up to about 1.1 µM and inactive = higher. Bounds are passed on as bounds.

The subject of the assay is NCI-H322M. In words: inhibition of tumour cell growth, NCI panel, 48 h.
For the molecule `COc1cc2c(cc1OC)C1C(=O)c3c(O)cc4c(c3OC1CO2)C=CC(C)(C)O4` (configuration not stated), the GI50 is inactive: 80.4 µM.
The result for `COc1cccc(-c2cc(O)c3cc(N4CCCC4)ccc3n2)c1` reads active: 0.00212 µM.
As for `Cc1cc(C(=O)CCCCOc2ccc(C3=NCCO3)cc2)c(C)n1C`, the GI50 is inactive: > 100 µM.
Consider `Cc1c(C(=O)OCc2ccccc2)[n+]([O-])c2ccccc2[n+]1[O-]`, for which the GI50 is inactive: 26.4 µM.
To `COc1ccc(C(=O)Cn2c(C(C)=O)nc3ccccc32)cc1` belongs inactive: 26.5 µM.
In the case of `Cc1ccc(C)c(N2C/C(=N\NC(=O)CC#N)C(c3nc4ccccc4s3)C(=O)C2=O)c1` (configuration not stated), the GI50 was inactive: > 100 µM.
The result for `Cc1cc2c(cc1Cl)SC(c1ccccc1)C(=O)NS2(=O)=O` (configuration not stated) reads inactive: 42.8 µM.
Consider `CC(=O)OC1COC(Nc2nc(NCc3ccccc3)n(C)c(=O)c2N=O)C(OC(C)=O)C1OC(C)=O` (configuration not stated), for which the GI50 was inactive: > 10 µM.
To `COc1cc(O)c(C(=O)C2Cc3ccccc32)c(OC)c1` (configuration not stated) belongs inactive: > 100 µM; to `O=C(CNc1ccccn1)Nn1cnc2ccc(S(=O)(=O)Nc3ccccn3)cc2c1=O`, inactive: > 100 µM.
The result for `COCCOC1=C(Cl)C(=O)c2c(O)ccc(O)c2C1=O` reads inactive: 10.4 µM; that for `C=CC(C)(C)[C@@]12CC3C(=O)N[C@@H](Cc4ccccc4)C(=O)N3[C@@H]1N(C(C)=O)c1ccccc12` (some centres not stated), inactive: > 100 µM; that for `Cc1cccc2sc(NC(=O)NS(=O)(=O)n3cnc4ccccc43)nc12`, inactive: 32.1 µM.
To `Cc1nc2c(o1)C(=O)c1ccccc1/C2=N/C1CCCCC1N` (configuration not stated) belongs inactive: 1.76 µM; to `Cc1ccc(Nc2nc(-c3ccc(-c4ccc([N+](=O)[O-])cc4)o3)cs2)cc1`, inactive: > 100 µM; to `CCOC(C[Se]CC(OCC)OCC)OCC`, inactive: 40.4 µM.
In the case of `NC1CCN(c2nc3ccccc3c3c2CCCC3)CC1`, the GI50 is inactive: 4.07 µM.
With `Cc1cccc(-c2nc3ccc([N+](=O)[O-])cc3c(=O)o2)c1`, the GI50 was inactive: > 100 µM.
The result for `N#Cc1nc(C2OC(COC(=O)c3ccccc3)C(OC(=O)c3ccccc3)C2OC(=O)c2ccccc2)oc1N` (configuration not stated) reads inactive: 93.1 µM; that for `CCOC(=O)CCC(NC(=O)N1CCN(c2c(C)nc(C)nc2O)CC1)C(=O)OCC` (configuration not stated), inactive: > 100 µM.
With `COc1cc(C2C(C(=O)Nc3ccc([N+](=O)[O-])cc3)=C(C)NC(C)=C2C(=O)Nc2ccc([N+](=O)[O-])cc2)ccc1O`, the GI50 was inactive: 18.9 µM.
To `NC(=O)NC1C(C(=O)O)N(Cc2ccccc2)C(=O)N1Cc1ccccc1` (configuration not stated) belongs inactive: > 100 µM; to `COc1cc(S(=O)(=O)Nc2ccc(-c3csc(N4C(=O)CSC4c4ccccc4O)n3)cc2)ccc1Cl` (configuration not stated), inactive: 54.2 µM.
As for `Cc1c(C)c2c(c(N)c1C#N)C(=O)N(NC(=S)Nc1ccccc1)C2=O`, the GI50 is inactive: > 100 µM.
The result for `CC(C)C(Cl)CCC(C)(Cl)C(=O)CBr` (configuration not stated) reads inactive: 33.1 µM; that for `COc1cc(Cn2c3c(c4cc(O)ccc42)Cc2ccccc2C3=O)cc(OC)c1`, inactive: > 100 µM; that for `COc1cc(/C=C2\CCC(C)C3=C2NC(=S)NC3c2cc(OC)c(OC)c(OC)c2)cc(OC)c1OC` (configuration not stated), inactive: 69.2 µM.
To `Cc1cc(N(CCC#N)CCC#N)ccc1C(/N=N/c1ccccc1)=N\NC(=O)c1ccccc1` belongs inactive: 21.9 µM; to `O=c1oc2cccnc2n1CCCCN1CCN(c2ccccc2)CC1`, inactive: > 100 µM.
The result for `COc1cc(COC(=O)N[C@H](C(=O)O)C(C)(C)C)c([N+](=O)[O-])cc1OC` reads inactive: > 100 µM.
As for `COc1ccc2nc3cc(Cl)ccc3c(NCCNCCCNC(=O)c3cc(-c4ccccc4)nc4ccccc34)c2c1`, the GI50 was inactive: > 100 µM.
To `Cc1ccc(NC(=O)C(=O)C(C(=O)/C=C/c2ccccc2)C2OC(=O)c3ccccc32)c(C)c1` (configuration not stated) belongs inactive: > 100 µM; to `CC1OC(OCC2OC(Oc3c(-c4ccc(O)cc4)oc4cc(O)cc(O)c4c3=O)C(OC3OCC(O)(CO)C3O)C(O)C2O)C(O)C(O)C1O` (configuration not stated), inactive: > 100 µM; to `CC1(C)CCC2(C(=O)OC3OC(CO)C(O)C(O)C3O)CCC3(C)C(=CCC4C5(C)CCC(OC6OC(CO)C(O)C(O)C6O)C(C)(C)C5CCC43C)C2C1` (configuration not stated), inactive: 16.9 µM.
The result for `O=C(c1ccccn1)c1nc(-c2ccc(Cl)c(Cl)c2)nc2ccc(Cl)cc12` reads inactive: > 100 µM; that for `COc1ccc([C@H]2[C@@H]3CCc4ccccc4C3=NN2C(N)=S)cc1OC`, inactive: 90.2 µM; that for `O=C(NCC(O)CNC(=O)C(F)(F)F)C(F)(F)F`, inactive: > 100 µM.
To `CO/C=C1\OC(=O)C=C1OC` belongs inactive: > 100 µM.
Turning to `O=C1CCCC2=C1CC1=C(CCCC1=O)N2c1ccccc1C(=O)O`, the GI50 is inactive: > 100 µM.
As for `COc1ccc(/C=C(\C#N)c2nc(-c3cc4ccccc4oc3=O)cs2)cc1`, the GI50 is inactive: 92 µM.
To `CP1(=O)CCCCC1` belongs inactive: > 100 µM.
As to `NNC(=O)c1c(-c2cccnc2)cnc2ccccc12`, the GI50 is inactive: > 100 µM.
To `O=C(O)Cc1ccc(Nc2nc3cc(C(F)(F)F)ccc3nc2C(=O)O)cc1` belongs inactive: > 100 µM; to `CC(=O)OC1CC2(O)C(CCC3(C)C(c4ccc(=O)oc4)CCC32O)C2(C)CCC(O)C=C12` (configuration not stated), active: < 0.0141 µM.
To `N#Cc1nc(C2CCC(=O)O2)oc1N` (configuration not stated) belongs inactive: > 100 µM.
The result for `Cc1cc(/N=C/c2ccc(C#N)cc2)n(-c2ccccc2)n1` reads inactive: 92 µM.
Take `c1ccc(B2OCC(C3OB(c4ccccc4)OC4COB(c5ccccc5)OC43)O2)cc1` (configuration not stated): the GI50 was inactive: > 100 µM.
Turning to `O=C1NC(=S)S/C1=C/c1ccco1`, the GI50 was inactive: > 100 µM.
As to `CC(C(=O)c1ccncc1)c1ccccn1` (configuration not stated), the GI50 is inactive: > 100 µM.
For the molecule `Cc1ccc(C2=C(C#N)C(=O)N3CCN=C3S2)cc1`, the GI50 was inactive: > 100 µM.
The result for `CCCCC(=O)OCC(=O)[C@]1(O)Cc2c(O)c3c(c(O)c2[C@@H](OC2CC(NC(=O)C(F)(F)F)C(O)C(C)O2)C1)C(=O)c1c(OC)cccc1C3=O` (some centres not stated) reads inactive: 2.27 µM; that for `CCCCCCCCCCCCCCCCCC(=O)OCC(COC1OC(CS(=O)(=O)O)C(O)C(O)C1O)OC(=O)CCCCCCCCCCCCCCCCC` (configuration not stated), inactive: > 100 µM.
The result for `O=C(O)CCNC(=O)c1cc(N(CCBr)CCBr)c([N+](=O)[O-])cc1[N+](=O)[O-]` reads inactive: > 100 µM; that for `C=C(C)C1CC=C(C)[C@](O)(C2(O)C[C@H](C(=C)C)CC=C2C)C1` (some centres not stated), inactive: > 100 µM; that for `COc1ccc2c3c([nH]c2c1)[C@H]1C[C@H]2[C@H](C[C@@H](O)[C@H](OC)[C@H]2C(=O)O)CN1CC3`, inactive: > 100 µM.
To `Cc1cn(C2CC(O)C(CO)O2)c(=O)[nH]c1=O` (configuration not stated) belongs inactive: 1830 µM; to `Cc1cc(C)c2c(O)cc(-c3ccc(F)cc3)nc2n1`, inactive: 65.8 µM.
